Source: the supplement of paper PMC10369915
The list shows a part of the results. No stated cut-off is given here; in the data, active = 3.2 or more and inactive = the rest. Only a few entries rise above the background.

B1: PDCD6IP_Y727 (peptide)
chain: IPTPAYQSSPA
B2: PDGFRA_Y572_YF (peptide)
chain: PDGHEYIFVDP
B3: PDGFRB_Y579_P584R (peptide)
chain: SDGHEYIYVDR
B4: PDE6B_Y556_H557Y_YF (peptide)
chain: FRRITYFNWRH
B5: PDE6A_Y275_V277A (peptide)
chain: LNCDRYSAGLL
B6: PCDHGA1_Y895_YF (peptide)
chain: FRQNVYIPGSN
B7: PDE6B_Y212_Y212H (peptide)
chain: DVFLKHLNFAT
B8: PDE10A_Y300_L303P (peptide)
chain: KNKELYSDPFD
B9: PDE6B_Y227_YF (peptide)
chain: IFHLSYLHNCE
B10: PDE6B_Y227 (peptide)
chain: IYHLSYLHNCE
B11: PCDHGA1_Y895_V894G (peptide)
chain: YRQNGYIPGSN
B12: PDE6B_Y227_L228H_YF (peptide)
chain: IFHLSYHHNCE
B13: PDE6C_Y266 (peptide)
chain: FHKALYTVRSY
B14: PDE4DIP_Y45 (peptide)
chain: SREDIYKRNIE
B15: PDE6B_Y219_Y219H_YF (peptide)
chain: NFATLHLKIFH
B16: PCDHGA1_Y890_V894G (peptide)
chain: QHVPDYRQNGY
B17: PDE6B_Y556_H557Y (peptide)
chain: YRRITYYNWRH
B18: PDE6B_Y227_L228I (peptide)
chain: IYHLSYIHNCE

The binders below were run against SHP2 C-SH2 domain E139D (assay: enrichment score (SH2-bound / input frequency) (ratio); bacterial display of known human phosphotyrosine sites (pTyr-Var adds point mutants) read by sequencing; higher = stronger binding; tyrosines were phosphorylated by kinases first). Details: peptide library: pTyr-Var.
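Further: displayed peptides selected on beads carrying the immobilized SH2 domain, with library peptides lacking any tyrosine serving as negative controls.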

Enrichment score, inactive:
B1 0.84, B2 0.56, B3 0.707, B4 0.298, B5 0.821, B6 0.743, B7 0.912, B8 0.702, B9 2.96, B10 2.57, B11 0.581, B12 2.95, B13 0.602, B14 0.602, B15 2.81, B16 0.662, B17 0.252, B18 2.86

The binders below were run against SHP2 C-SH2 domain wild-type in the same assay as above. Details: peptide library: pTyr-Var.

Enrichment score, inactive:
B1 0.818, B2 0.512, B3 0.629, B4 0.285, B5 0.823, B6 0.656, B7 0.845, B8 0.643, B9 3.04, B10 2.49, B11 0.545, B12 2.52, B13 0.563, B14 0.504, B15 3.15, B16 0.669, B17 0.263, B18 2.49

Each binder was assayed against SHP2 N-SH2 domain L43F in the same assay as above. Details: peptide library: pTyr-Var.

Enrichment score, inactive:
B1 0.763, B2 0.62, B3 0.613, B4 0.267, B5 0.626, B6 0.735, B7 0.73, B8 0.552, B9 3.03, B10 2.11, B11 0.599, B12 2.43, B13 0.657, B14 0.614, B15 2.96, B16 0.664, B17 0.22, B18 2.54

The binders below were run against SHP2 N-SH2 domain T42A in the same assay as above. Details: peptide library: pTyr-Var.

Enrichment score, inactive:
B1 0.656, B2 0.507, B3 0.679, B4 0.318, B5 0.742, B6 0.64, B7 0.854, B8 0.475, B9 2.43, B10 2.12, B11 0.501, B12 2.34, B13 0.412, B14 0.47, B15 2.92, B16 0.551, B17 0.269, B18 2.09

These binders were tested against SHP2 N-SH2 domain T52S in the same assay as above. Details: peptide library: pTyr-Var.

Enrichment score, inactive:
B1 0.751, B2 0.601, B3 0.762, B4 0.954, B5 0.682, B6 0.729, B7 0.888, B8 0.705, B9 2.96, B10 2.22, B11 0.613, B12 2.83, B13 0.46, B14 0.591, B15 3.17, B16 0.576, B17 0.254, B18 2.48

Each binder was assayed against SHP2 N-SH2 domain wild-type in the same assay as above. Details: peptide library: pTyr-Var.

Enrichment score, inactive:
B1 0.805, B2 0.591, B3 0.662, B4 0.281, B5 0.697, B6 0.794, B7 0.906, B8 0.664, B9 2.97, B10 2.59, B11 0.581, B12 2.92, B13 1.16, B14 0.742, B15 2.82, B16 0.712, B17 0.2, B18 2.45
